# Test results: the supplement of paper PMC3334620
# Whole data set: some 33,000 sequences, median “E-score (-0.5 to 0.5)” near -0.017, cut for the highest 2% near 0.3. The list shows a part of the results.
# Target: T1, Sut1 (UniProt P53032)
# T1 sequence: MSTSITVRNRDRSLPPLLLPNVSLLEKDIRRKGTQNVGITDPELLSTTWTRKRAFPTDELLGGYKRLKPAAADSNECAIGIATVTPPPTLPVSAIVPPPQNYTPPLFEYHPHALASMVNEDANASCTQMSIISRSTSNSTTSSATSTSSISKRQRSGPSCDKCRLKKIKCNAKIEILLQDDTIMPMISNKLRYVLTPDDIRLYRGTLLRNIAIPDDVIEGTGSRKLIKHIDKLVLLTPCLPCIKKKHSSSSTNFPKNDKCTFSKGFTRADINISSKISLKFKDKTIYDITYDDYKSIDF
# Experiment: PBM E-score (8-mer binding enrichment) (E-score (-0.5 to 0.5)); higher = stronger / more preferred TF binding; most listed sequences are background and not binding sites
# Conditions: protein concentration: 200 nM; construct: GST-full length
# Method in brief: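 Bound GST-tagged yeast transcription factors, applied at about 100-200 nM to double-stranded universal all-10-mer Agilent arrays, were detected with fluorescent anti-GST. Scans were normalised with masliner. A modified Wilcoxon-Mann-Whitney statistic, the E-score, was assigned to each ungapped eight-base word pooled with its reverse complement by the Universal PBM Analysis Suite.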
row,Sequence,PBM E-score
1,AAAGGTTA,0.00288
2,GCGCCCAA,-0.147
3,TCTATAGA,0.0647
4,AAAGGAAC,0.0768
5,GAGGCCCC,-0.337
6,AGGCCCAT,-0.271
7,CTAACCTC,0.039
8,CCGAGAGC,-0.0413
9,CACCGCAC,-0.252
10,GCATGGCA,-0.148
11,ACGGGTAA,-0.106
12,CAGCTTGG,0.0282
13,GCGAAACC,-0.0165
14,GAAACGGC,-0.00384
15,CAACTTTA,0.16
16,GCCCGAGA,0.0215
17,CCAAGCAC,-0.11
18,TATCAAAA,0.197
19,ATATACAA,0.256
20,GATCACAA,0.101
21,CTCGTCAC,-0.0641
22,ACTACATC,0.0926
23,GCTAAGCA,-0.106
24,CACATTGA,0.0527
25,AACGTAGT,-0.152

row,Sequence,PBM E-score
1,ATATGGTA,0.116
2,CGTTGTAA,-0.0499
3,ACCCTGGC,-0.194
4,GTAAGATA,0.264
5,AAATAATG,0.297
6,CCGAATAC,0.189
7,GGACGAAC,0.00805
8,AGAGGTTC,-0.0571
9,CTCACGAG,-0.0283
10,CTCAATTC,0.106
11,ATCATGCA,-0.0516
12,GCCGGTCA,-0.112
13,GGTGTTAA,-0.0501
14,CGAGTTAC,0.0146
15,ACCATTGC,-0.0529
16,GCGAAACA,0.0351
17,GTGGGGAA,0.0142
18,GGCCTGTA,-0.21
19,CCTCTTGA,-0.0682
20,CTGCGCAC,-0.0515
21,AAGGCCAT,0.00678
22,GTGTGTAA,0.0906
23,AGAACCAC,0.0611
24,ACGATCGT,-0.165
25,GACAACCC,-0.051

row,Sequence,PBM E-score
1,GACTTTCA,0.174
2,ATACACGG,0.115
3,AGCGGATG,-0.0827
4,CTGTCCGC,-0.0203
5,TGATAGCA,0.102
6,AAATGATA,0.337
7,ATGTAAAT,0.217
8,GCACAAGC,-0.083
9,AGGGGCCC,-0.217
10,CTAATTAG,0.096
11,CCGAAGGA,-0.0752
12,AGAGCTAC,-0.188
13,ATTCAGAA,0.12
14,CGGCACTC,0.0659
15,CACGATCC,0.00496
16,ACTATTCA,0.214
17,CGGTGCAC,-0.267
18,CTATAGCC,-0.195
19,AAGCGCTT,0.162
20,CATGGCCC,-0.197
21,ATCCGGTG,0.0918
22,CCGTATAC,0.105
23,CCGAGACA,0.0464
24,TCCGTTAA,0.326
25,CAACCGCC,-0.161

row,Sequence,PBM E-score
1,TAGGTTAA,0.11
2,GGGACAAA,-0.142
3,CTCCAGAC,-0.0572
4,CGGTTCCC,-0.0494
5,CTTATGTC,0.0332
6,GCCTAACC,-0.116
7,TATGTGAA,-0.0499
8,CAAAGTCC,0.282
9,TAGAGTAA,0.184
10,GTTGGCAA,-0.0298
11,AGATCAAG,-0.00203
12,AAGGTTCG,0.13
13,ACGTATCA,0.0656
14,CCGTGTCC,0.053
15,AACTAATA,0.324
16,CCAGGTAA,-0.0542
17,GCACATAA,-0.0947
18,CCCCTTCG,-0.348
19,CAGCGCCG,-0.155
20,CAGCAGAC,-0.264
21,CGGAGAAA,0.391
22,AACCTGCC,-0.0894
23,CCAGGTAC,-0.31
24,CGAGTAGA,-0.0364
25,ACTTGATG,0.0275

row,Sequence,PBM E-score
1,ACAAAATC,0.204
2,CAAAGCCG,-0.00976
3,GGGAATCA,-0.126
4,ACAAAAGT,0.0749
5,TAAAGGCA,0.136
6,AAGGGACG,-0.245
7,GATGGGGA,-0.1
8,AACCACAT,0.0288
9,GAAGTAGC,-0.0793
10,GGCCTTTA,-0.125
11,GTGGCCAA,-0.141
12,GGGTTGAA,-0.0843
13,ATCAGTCC,-0.204
14,CCTTAAGG,0.0101
15,CGCATACG,0.0145
16,ACCTGCGT,0.0426
17,CGCTAGGA,-0.00382
18,TCTCCTCA,-0.0295
19,CCGAGGTC,0.209
20,AAGTAAGC,0.0988
21,ATCCTTAA,-0.0598
22,GGAGTCTA,0.182
23,GGCGAGTA,-0.166
24,ATATCTCA,0.279
25,GAGGCTGA,-0.131

row,Sequence,PBM E-score
1,ACCCACGA,-0.222
2,GTGACTAA,0.055
3,GAGTCCGA,0.476
4,GCCTAAGA,-0.197
5,TACGAGTA,0.121
6,CTCCAGCC,-0.155
7,CTCGTCCC,-0.169
8,ACCTTTCG,0.0504
9,ATTATTTG,0.319
10,GTGGGGGA,-0.385
11,GATATAAC,0.206
12,CTTCCCAA,-0.0742
13,CGATTGGC,0.0185
14,ATCACCCG,-0.204
15,GTTCTGGA,0.047
16,ACAGGTAA,0.0408
17,AATGGATG,-0.00809
18,AATGTTTC,0.146
19,ACACAACA,0.128
20,ACAAGTAT,0.135
21,AAGAGTGC,-0.02
22,TCAAGGAA,-0.127
23,AATCGCCA,-0.0545
24,AGTGGTAT,0.0378
25,TCCCGAAA,0.0428

row,Sequence,PBM E-score
1,AGACTTAC,-0.0551
2,ATGCTCCG,0.262
3,ACCACCCA,0.00946
4,AATTTGGT,0.166
5,GACGCGGC,-0.0396
6,CAAGCGGC,-0.0127
7,CTCTTTAC,0.119
8,ACTTGACA,-0.148
9,CGACGTTA,0.113
10,ACTACGGC,0.033
11,TCACTTAA,0.181
12,AAGCCCCT,-0.23
13,ATATTGAC,0.147
14,GTAATACA,0.13
15,ACCATTAG,0.194
16,GTTGTCAA,-0.0747
17,GCACATGA,-0.24
18,CCCGGTCA,-0.0703
19,GCTATTAA,0.155
20,GGAATACC,-0.0435
21,AGAAAACC,0.0677
22,ATTCTGTC,0.0251
